Reference: PMC12820563, “FoxP3 forms a head-to-head dimer in vivo and stabilizes its multimerization on adjacent microsatellites”
The list shows a part of the results.

molecular target: T1, MBP-FoxP1dN (Mus musculus, UniProt P58462 326-579); test: PD-seq (MBP pull-down with sequencing); 20 mM Tris-HCl pH 7.5, 100 mM NaCl, 1.5 mM MgCl2, 0.4 uM protein, 0.1 uM dsDNA library, 30 min, room temperature, amylose pull-down; high values mean tight binding; conditions: protein: recombinant; tags: His6-MBP; chain copies: 2; dsDNA, one strand shown
T1 sequence: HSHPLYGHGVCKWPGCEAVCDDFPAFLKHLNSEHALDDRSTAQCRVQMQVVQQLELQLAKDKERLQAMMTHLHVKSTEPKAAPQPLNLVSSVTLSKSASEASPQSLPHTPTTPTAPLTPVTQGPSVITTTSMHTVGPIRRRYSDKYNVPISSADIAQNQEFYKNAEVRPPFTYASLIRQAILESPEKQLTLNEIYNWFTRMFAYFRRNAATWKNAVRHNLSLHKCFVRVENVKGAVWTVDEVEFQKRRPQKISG
In short: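 The N-terminus-lacking fragment of mouse FoxP3 or FoxP1 carried a His6-MBP tag and was expressed in E. coli. At 0.4 µM it was incubated with 0.1 µM Klenow-filled degenerate double-stranded DNA library for 30 min at room temperature in Tris pH 7.5 buffer with NaCl and MgCl2, and complexes were caught on amylose resin, washed three times, released with proteinase K, PCR-barcoded and Illumina-sequenced. Binding is reads-per-million enrichment of pull-down over input with replicates pooled.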

Row | Sequence | binding signal
1 | GATGATTGTTCTCCCAGCTGATGAATTACAACTGTCGAGTAAACAAATTTTCCTAATCTTTCTGTTCAAGCGCCATCTAC | 1.35 RPM ratio (pull-down/input)
2 | GATGATTGTTCTCCCAGCTGATGAATTTGCTTACTCGAGTAAACAAATTTTCCTAATCTTTCTGTTCAAGCGCCATCTAC | 1.69 RPM ratio (pull-down/input)
3 | GATGATTGTTCTCCCAGCTGATGAATTAGTGCCCTCGAGTAAACAAATTTTCCTAATCTTTCTGTTCAAGCGCCATCTAC | 0.849 RPM ratio (pull-down/input)
4 | GATGATTGTTCTCCCAGCTGATGAATTGCGTAGCTCGAGTAAACAAATTTTCCTAATCTTTCTGTTCAAGCGCCATCTAC | 0.949 RPM ratio (pull-down/input)
5 | GATGATTGTTCTCCCAGCTGATGAATTTCGTGGGTCGAGTAAACAAATTTTCCTAATCTTTCTGTTCAAGCGCCATCTAC | 0.786 RPM ratio (pull-down/input)
6 | GATGATTGTTCTCCCAGCTGATGAATTTTGCTAATCGAGTAAACAAATTTTCCTAATCTTTCTGTTCAAGCGCCATCTAC | 1.06 RPM ratio (pull-down/input)
7 | GATGATTGTTCTCCCAGCTGATGAATTCGGTCACTCGAGTAAACAAATTTTCCTAATCTTTCTGTTCAAGCGCCATCTAC | 0.835 RPM ratio (pull-down/input)
8 | GATGATTGTTCTCCCAGCTGATGAATTGTCTCTCTCGAGTAAACAAATTTTCCTAATCTTTCTGTTCAAGCGCCATCTAC | 1.03 RPM ratio (pull-down/input)
9 | GATGATTGTTCTCCCAGCTGATGAATTCCAAATATCGAGTAAACAAATTTTCCTAATCTTTCTGTTCAAGCGCCATCTAC | 1.22 RPM ratio (pull-down/input)
10 | GATGATTGTTCTCCCAGCTGATGAATTTAGATTCTCGAGTAAACAAATTTTCCTAATCTTTCTGTTCAAGCGCCATCTAC | 0.988 RPM ratio (pull-down/input)
11 | GATGATTGTTCTCCCAGCTGATGAATTGACATATTCGAGTAAACAAATTTTCCTAATCTTTCTGTTCAAGCGCCATCTAC | 1.29 RPM ratio (pull-down/input)
12 | GATGATTGTTCTCCCAGCTGATGAATTTTGAATCTCGAGTAAACAAATTTTCCTAATCTTTCTGTTCAAGCGCCATCTAC | 0.828 RPM ratio (pull-down/input)
13 | GATGATTGTTCTCCCAGCTGATGAATTCAATTTGTCGAGTAAACAAATTTTCCTAATCTTTCTGTTCAAGCGCCATCTAC | 1.07 RPM ratio (pull-down/input)
14 | GATGATTGTTCTCCCAGCTGATGAATTTCCGGAGTCGAGTAAACAAATTTTCCTAATCTTTCTGTTCAAGCGCCATCTAC | 0.774 RPM ratio (pull-down/input)
15 | GATGATTGTTCTCCCAGCTGATGAATTATTGCGTTCGAGTAAACAAATTTTCCTAATCTTTCTGTTCAAGCGCCATCTAC | 1.28 RPM ratio (pull-down/input)
16 | GATGATTGTTCTCCCAGCTGATGAATTTCATACCTCGAGTAAACAAATTTTCCTAATCTTTCTGTTCAAGCGCCATCTAC | 0.855 RPM ratio (pull-down/input)

Row | Sequence | binding signal
17 | GATGATTGTTCTCCCAGCTGATGAATTAAACACGTCGAGTAAACAAATTTTCCTAATCTTTCTGTTCAAGCGCCATCTAC | 1.21 RPM ratio (pull-down/input)
18 | GATGATTGTTCTCCCAGCTGATGAATTGAGCTTGTCGAGTAAACAAATTTTCCTAATCTTTCTGTTCAAGCGCCATCTAC | 0.829 RPM ratio (pull-down/input)
19 | GATGATTGTTCTCCCAGCTGATGAATTATAACTTTCGAGTAAACAAATTTTCCTAATCTTTCTGTTCAAGCGCCATCTAC | 1.02 RPM ratio (pull-down/input)
20 | GATGATTGTTCTCCCAGCTGATGAATTATCTCGCTCGAGTAAACAAATTTTCCTAATCTTTCTGTTCAAGCGCCATCTAC | 0.965 RPM ratio (pull-down/input)
21 | GATGATTGTTCTCCCAGCTGATGAATTAGACTTATCGAGTAAACAAATTTTCCTAATCTTTCTGTTCAAGCGCCATCTAC | 0.957 RPM ratio (pull-down/input)
22 | GATGATTGTTCTCCCAGCTGATGAATTGGTACGATCGAGTAAACAAATTTTCCTAATCTTTCTGTTCAAGCGCCATCTAC | 1 RPM ratio (pull-down/input)
23 | GATGATTGTTCTCCCAGCTGATGAATTCAGAGCGTCGAGTAAACAAATTTTCCTAATCTTTCTGTTCAAGCGCCATCTAC | 0.834 RPM ratio (pull-down/input)
24 | GATGATTGTTCTCCCAGCTGATGAATTGATTCACTCGAGTAAACAAATTTTCCTAATCTTTCTGTTCAAGCGCCATCTAC | 1.03 RPM ratio (pull-down/input)
25 | GATGATTGTTCTCCCAGCTGATGAATTCTCCTTATCGAGTAAACAAATTTTCCTAATCTTTCTGTTCAAGCGCCATCTAC | 0.861 RPM ratio (pull-down/input)
26 | GATGATTGTTCTCCCAGCTGATGAATTTTGGGGTTCGAGTAAACAAATTTTCCTAATCTTTCTGTTCAAGCGCCATCTAC | 0.812 RPM ratio (pull-down/input)
27 | GATGATTGTTCTCCCAGCTGATGAATTACATAGTTCGAGTAAACAAATTTTCCTAATCTTTCTGTTCAAGCGCCATCTAC | 1.21 RPM ratio (pull-down/input)
28 | GATGATTGTTCTCCCAGCTGATGAATTTCTCCTCTCGAGTAAACAAATTTTCCTAATCTTTCTGTTCAAGCGCCATCTAC | 0.835 RPM ratio (pull-down/input)
29 | GATGATTGTTCTCCCAGCTGATGAATTTTGGCTCTCGAGTAAACAAATTTTCCTAATCTTTCTGTTCAAGCGCCATCTAC | 0.802 RPM ratio (pull-down/input)
30 | GATGATTGTTCTCCCAGCTGATGAATTGGGAAGGTCGAGTAAACAAATTTTCCTAATCTTTCTGTTCAAGCGCCATCTAC | 0.786 RPM ratio (pull-down/input)
31 | GATGATTGTTCTCCCAGCTGATGAATTCAATCTCTCGAGTAAACAAATTTTCCTAATCTTTCTGTTCAAGCGCCATCTAC | 0.857 RPM ratio (pull-down/input)
32 | GATGATTGTTCTCCCAGCTGATGAATTTTACGTTTCGAGTAAACAAATTTTCCTAATCTTTCTGTTCAAGCGCCATCTAC | 0.852 RPM ratio (pull-down/input)
